Data: PubChem BioAssay AID902 (National Center for Advancing Translational Sciences (NCATS), 2007)
The campaign covered roughly 130,000 compounds. About 1,900 (1.5%) were called active. This list was built around the results that the source calls inconclusive (neither active nor inactive); the mix of calls is not that of the screen. Calls follow the shape of the dose curve; as a rule, active = well fitted cell-killing curve with a large enough effect; inconclusive = small, poorly fitted or top-dose-only effect; inactive = no such curve, though single readings can be large or run the other way. A potency beside an inconclusive call is a rough fit, not a confirmed value.

experiment: qHTS Screen for Compounds that Selectively Target Cancer Cells with p53 Mutations: Cytotoxicity of p53ts Cells at the Nonpermissive Temperature; conditions: H1299-p53A138V viability at 39C, ATP luminescence, 24 h; activity change, negative = cell killing: at 46.1 µM (top of the series); also: nearly all actives have a fitted effect of over 55% in size
% is scaled to controls: 0 for no effect and ±100 for the full control effect; potency is read from the fitted curve at half-maximal effect; tags tell the direction and shape of the fitted curve.

SMILES	Potency	activity change, negative = cell killing
Cc1ccc(-n2sc3ccccc3c2=O)cc1S(=O)(=O)N1CCCCC1	inactive	–
COc1ccc2c(Sc3ccccc3)c(C(=O)NCCN(C)C)[nH]c2c1	inconclusive: 6.31 µM [cytotoxic, partial curve]	–
CC(C)Oc1ccc(CNC(=O)Cc2ccc(NC(=O)N3CCSc4ncccc43)cc2)cc1	inconclusive: 25.1 µM [cytotoxic, single point]	–
CC(=O)N1CCCc2cc(S(=O)(=O)N(C)CC(=O)Nc3ccc(F)c(Cl)c3)ccc21	inconclusive: 2.51 µM [cytotoxic, full curve, poor fit]	–
CCC(Cn1nnc2ccccc2c1=O)NC(=O)Nc1cc(Cl)ccc1OC (stereo unspecified)	inactive	–
Cc1ccc2[nH]c(CSc3nnc(NC(=O)COc4ccccc4F)s3)cc(=O)c2c1	inactive	–
Nc1ncnc2c1c(-c1ccc(Oc3ccccc3)cc1)cn2C1CCCC1	inconclusive: 15.8 µM [cytotoxic, single point]	–
NCCCCNS(=O)(=O)c1cccc2c(Cl)cccc12	active: 15.8 µM	–
Cc1cccc(-c2noc(CN(C(=O)c3ccc(C)c(C)c3)C(C)C)n2)c1	inconclusive: 12.6 µM [cytotoxic, single point]	–
Cc1csc2nc(-c3cccc(NC(=O)c4cccc(F)c4)c3)cn12	inconclusive: 20 µM [cytotoxic, partial curve]	–
CC(=O)N1CCCc2cc(S(=O)(=O)N(C)CC(=O)Nc3ccc(Cl)cc3C)ccc21	inconclusive: 0.02 µM [cytotoxic, full curve]	–
Fc1ccccc1-c1nc(-c2ccccc2)no1	inactive	–
Cc1ccc(OCc2nc3ccccc3n2Cc2ccccc2Cl)cc1	inconclusive: 12.6 µM [cytotoxic, partial curve]	–
Cc1cccc(-n2nnnc2S(C)(=O)=O)c1	inconclusive: 20 µM [cytotoxic, single point]	–
Cc1cccc(CNc2ccnc(-c3cccc(C#N)c3)n2)c1	inconclusive: 12.6 µM [cytotoxic, single point]	–
Cc1cc(C)c(Cn2c(C(O)c3ccccc3)nc3ccccc32)c(C)c1 (stereo unspecified)	active: 3.16 µM	–
O=C(NCCCN1CCN(c2ccccc2F)CC1)c1nnc(Cc2ccc(Cl)cc2Cl)o1	inconclusive: 15.8 µM [cytotoxic, single point]	–
CCCC(=O)Nc1nc(-c2ccc3c(c2)OCCO3)cs1	inactive	–
CCOc1ccc(NC(=O)CCS(=O)(=O)c2ccc3c(c2)n(C)c(=O)c(=O)n3C)cc1	inactive	–
CCOC(=O)CSc1nc2ccc(NC(=O)c3ccccc3)cc2s1	inconclusive: 25.1 µM [cytotoxic, partial curve, poor fit]	–
Cc1oc(-c2nc3ccccc3n2C)cc1C(=O)c1ccccc1	active: 3.98 µM	–
COC(=O)C1C(=O)CC(C)(O)C(C(=O)OC)C1/C=C/c1ccccc1 (stereo unspecified)	inactive	–
O=C(NCCc1csc(-c2ccc(F)cc2)n1)c1ccc(Br)o1	inconclusive: 0.631 µM [cytotoxic, full curve, poor fit]	–
CCC(=O)Nc1nnc(S(=O)(=O)N2CCc3ccccc32)s1	inconclusive: 31.6 µM [cytotoxic, single point]	–

SMILES	Potency	activity change, negative = cell killing
Cc1nc2c(C(=O)NC(C)c3ccccc3)cnn2c(C)c1Cc1ccccc1 (stereo unspecified)	active: 20 µM	–
CC(C)Oc1ccc(N2CC(C(=O)Nc3ccccc3F)CC2=O)cc1 (stereo unspecified)	inactive	–
CCOc1ccc(-c2nnc(NC(=O)c3ccc(OCC(C)C)c(OC)c3)o2)cc1	inconclusive: 12.6 µM [cytotoxic, partial curve]	–
CCOc1ccc(CNS(=O)(=O)c2ccc(-c3cc(C(F)(F)F)on3)s2)cc1	inactive	–
CC(=O)c1nn(-c2ccc(OC(F)(F)F)cc2)nc1Nc1ccc(C)cc1	inactive	–
O=C1CC(N2CCN(S(=O)(=O)c3cccc(C(F)(F)F)c3)CC2)C(=O)N1Cc1ccccc1 (stereo unspecified)	inactive	–
Cc1ccc(C)c(N2CCN(C(=O)c3ccc4[nH]c(C)c(C)c4c3)CC2)c1	inconclusive: 10 µM [cytotoxic, partial curve]	–
Cc1cccc(N2CCN(C(=O)c3ccc(NC(=O)c4nsc5ccccc45)cc3)CC2C)c1 (stereo unspecified)	inconclusive: 15.8 µM [cytotoxic, partial curve]	–
CCOc1ccc(/C(O)=C2/C(=O)C(=O)N(Cc3cccnc3)C2c2ccc(N(C)C)cc2)c(C)c1 (stereo unspecified)	inactive	–
O=C(Cc1cccs1)Nc1nc2c(s1)CCCC2	inconclusive: 7.94 µM [cytotoxic, partial curve]	–
Cc1ccc(-c2csc(NC(=O)c3cccc(N4C(=O)CCC4=O)c3)n2)o1	inconclusive: 15.8 µM [cytotoxic, partial curve]	–
COc1ccccc1Nc1c2c(nc3ccc(NC(=O)c4cccc(F)c4)cc13)CCCC2	active: 5.01 µM	–
Cc1nn(C(=O)c2ccc3c(c2)OCO3)c(N)c1-c1ccccc1	inconclusive: 31.6 µM [cytotoxic, single point]	–
C/C(N)=C(/C#N)C(=O)CSc1nnc(COc2ccccc2Cl)o1	inactive	–
COc1cccc(C(=O)Nc2ccc(NC(=O)c3ccc(C(C)(C)C)cc3)cc2)c1	inconclusive: 1.26 µM [cytotoxic, full curve, poor fit]	–
CC1(C(=O)Nc2ncc(Cc3ccc(Br)cc3)s2)Cc2ccccc2C(=O)O1 (stereo unspecified)	inconclusive: 3.16 µM [cytotoxic, full curve]	–
COc1cc(OC)c(NC(=O)c2c3c(nn2C)-c2ccccc2SC3)cc1Cl	inconclusive: 10 µM [cytotoxic, partial curve]	–
Cc1nn(-c2ccccc2)c2sc(C(=O)Nc3cccc(O)c3)cc12	inconclusive: 15.8 µM [cytotoxic, single point]	–
O=C(Nc1ccccc1)Nc1ccccc1	inconclusive: 5.01 µM [cytotoxic, partial curve]	–
COc1ccc(CCNC(=O)CCCn2nc(C)c3sc4ccccc4c3c2=O)cc1OC	inconclusive: 12.6 µM [cytotoxic, partial curve, poor fit]	–
CCOc1cccc(-c2nc3cc(C)ccc3o2)c1	inconclusive: 20 µM [cytotoxic, partial curve]	–
O=C(Nc1cc(Cl)cc(Cl)c1)c1ccc(F)c(S(=O)(=O)NCc2ccccc2Cl)c1	inconclusive: 20 µM [cytotoxic, single point]	–
COc1cccc(-c2nc(=S)c3c(n2Cc2ccco2)CCCC3)c1	inactive	–
COc1ccc(/C=C/c2nc(C#N)c(N3CCC(C)CC3)o2)cc1OC	inactive	–

SMILES	Potency	activity change, negative = cell killing
COc1ccccc1-c1nc(-c2cccc(C)c2)no1	inconclusive: 25.1 µM [cytotoxic, single point]	–
COc1cc(OC)c(NC(=O)c2ccc3c(c2)N(Cc2ccc(C)cc2)CCS3)cc1Cl	inactive	–
Cn1c(N)c(S(=O)(=O)c2ccc(Br)cc2)c2nc3ccccc3nc21	inactive	–
CC1(C)Cc2c(sc3nc(-c4cccs4)n(N)c(=O)c23)CO1	inconclusive: 12.6 µM [cytotoxic, single point]	–
CCCS(=O)(=O)Nc1cc(-c2cn3ccc(C)cc3n2)ccc1C	inconclusive: 20 µM [cytotoxic, single point]	–
Nc1cc(C2CCCC2)nn1-c1ccccc1	inconclusive: 10 µM [cytotoxic, partial curve]	–
O=C(CN1C(=O)CCSc2ccccc21)Nc1ccc(C(F)(F)F)cc1	inconclusive: 3.98 µM [cytotoxic, full curve, poor fit]	–
O=C(CCN1CCc2ccccc2C1)c1ccc2c(c1)OCCO2	inconclusive: 20 µM [cytotoxic, single point]	–
CCc1nn(CC(=O)NCCOC)c(=O)c2cc3cc(F)ccc3n12	inactive	–
CCN(Cc1ccccc1)C(=O)Cn1c(=O)n(-c2cccc(C)c2)c(=O)c2c1c1cc(OC)ccc1n2C	inconclusive: 0.631 µM [cytotoxic, single point]	–
Cc1nc2c(C(=O)NCCc3ccc(Cl)cc3)cnn2c(C)c1Cc1ccc(F)cc1	inconclusive: 20 µM [cytotoxic, single point]	–
NCCC1([N+](=O)[O-])CCNCC1	–	inactive: -2.19% [at 9.22 µM]
COC(=O)c1ccccc1NC(=O)c1ccc(=O)n(Cc2cccc(C)c2)c1	inactive	–
CCOc1ccc(-c2nnc(SCC(=O)Nc3cc(C)ccc3OC)o2)cc1	inconclusive: 10 µM [cytotoxic, single point]	–
Cc1cccc(-c2nnc(SCC(=O)N3CCCCC3)o2)c1	inconclusive: 20 µM [cytotoxic, partial curve]	–
O=C(Nc1ccccc1F)c1oc2ccccc2c1NC(=O)c1c(F)cccc1F	inconclusive: 31.6 µM [cytotoxic, single point]	–
C=C(C)COc1ccc(-c2nc(N)ncc2-c2ccc(OC)cc2)c(O)c1	inconclusive: 31.6 µM [cytotoxic, single point]	–
Cc1cc(NS(=O)(=O)c2ccc3oc(=O)c4ncn(C)c4c3c2)ccc1Br	inconclusive: 25.1 µM [cytotoxic, single point]	–
COc1ccc(NC(=O)C2CCCN(c3nnc(C)c4c(C)n(-c5ccccc5)nc34)C2)cc1Cl (stereo unspecified)	active: 10 µM	–
O=C(Nc1ccc(-c2noc(CCc3ccccc3)n2)cc1)c1ccco1	active: 10 µM	–
CN(Cc1ccccc1)S(=O)(=O)c1ccc(C(=O)Nc2nnc(C3CC3)o2)cc1	active: 12.6 µM	–
CCN(CC)c1nc(N)c2c(N)nc3c(c2c1C#N)CC(c1ccccc1)O3 (stereo unspecified)	inactive	–
CCOC(=O)c1c(C)c(-c2ccccc2)n(CC(=O)NC(CC)Cc2ccccc2)c1C (stereo unspecified)	inconclusive: 31.6 µM [cytotoxic, partial curve]	–
